# The list shows a part of the results. Binding of human antibodies (heavy:light variable regions, tested as scFv in one mRNA-display pool) to influenza hemagglutinin, with or without the stem antibody CR9114 bound first. Score = (mean enrichment − median) / interquartile range of that screen; higher = more enriched, 0 = typical non-binder. Active = above the paper's cut-off per screen: stems 28; unblocked H1 Solomon Islands 5, H1 Michigan 3, H3 5, H5 19, H7 2.85, both B 5; blocked 9, 7, H5 10, H7 10, B Phuket 10, B Lee 11.5. Scores are scaled within each screen and are no affinities; replicates correlate at about 0.6 to 0.9, and antibodies rare in the pool are noisier.
# B1: R95-2G10 (protein)
# chain 1: EVQLVESGGGVVHPGGSLRLSCAASGFTFSSYAMHWVRQAPGKGLEGVAFIKYDGTNKYYADSLKGRFTISRDNSKNTLYLQMNSLRADDTAVYYCAKAHNAAVAGLAEYFEHWGQGTLVTVSS
# chain 2: SYELTQPPSVSVAPGQTARITCGGNNIGSKNVHWYQQKPGQAPVLVVHDDSDRPSGIPERFSGSNSGNTATLTISRVEAGDEADYYCQVWDRHSDHFWVFGGGTKLTVL
# B2: K77-2F02 (protein)
# chain 1: EVQLVESGGVVVQPGGSVRLSCAASGFTFDDYAMHWVRQAPGKSLEWVSLISWDGGNTYYADSVRARFTISRDNDKNSLYLQINSSRPEDTALYYCARDQGSSWYSGKLGIDYWGQGALVTVSS
# chain 2: DIVMTQTPLSLSVTPGQPASISCKSSHSLLHSDGKTYLYWYLQKPGQSPHLLIYEVSSRFSGVPDRFSGSGSGTDFTLKISRVEAEDVGVYYCMQGMHVPRLTFGGGTKVEIK
# B3: antibody 3C04 (protein)
# chain 1: VQLVQSGAEVKKPGASVKVSCKASGYTFTYHYVYWVRQAPGQGLEWMGWMSPKTGDTNISQRFQGRVTMTRDTSITTAYMEMSRLRFDDTAVYYCTRGQYSDHFDSWGQGTLVTVSS
# chain 2: SYELTQPPSVSVAPGQTAMITCGGNHIGTKSVHWYQQRPGQAPVLVVYDNRVRSSGIPERFSGSNSGNTATLTISRVEAGDEADYYCQVWDSSSDHNVVFGGGTKLTVL
# B4: 3C11 (protein)
# chain 1: QVQLVQSGAEVKETGESLNISCKVSGNNFPSYYISWVRQMPGNGLEWMGRIDPSDSDTNYRPSFQGHVTISADKSTSTAYLQWRSLKASDTAMYYCARRATYYYGSGSYFDAFDIWGQGTMVTVSS
# chain 2: EIVMTQSPLTLPVTPGAPASISCRSSQSLLHSDGYNYLDWYLQKPGQSPQLLIYLGSHRASGVPDRFSGSGSGTDFTLKISRVEAEDVGVYYCMQALQTPDFGQGTRLEIK
# B5: W85-1F07 (protein)
# chain 1: QVQLAQSGPEVKKPGTSVKVSCKASGFTFSRAAVQWVRQARGQPLEWMGWIVGGSGKANYAQKFQERVTITRDMSTSTAYMELSSLRSEDTAVYYCAADASGYDLHYYYYYGMDVWGQGTTVTVSS
# chain 2: QSALTQPASVSGSPGQSITISCTGTSSDVGGYDFVSWYQQCPDNAPKLMIYEVSHRPSGVSNRFSGSKSGNTASLTISGLRSEDEADYYCSSYTITNTWVFGGGTKLTVL
# B6: AG2-B01 (protein)
# chain 1: VQLVESGGGLIQPGGSLRLSCAVSGFGVSSKYMSWVRQTPGKRLEWVSIIYAGGNTYYGGSLRGRFTISRDTVKNIVFLDMKSLRGEDTAVYYCARGLSNVYPNTFDLWGQGTLVTVSS
# chain 2: DIVMTQSPFSLPVTPGEPAFISCRSSQSLLHTDGYNYVDWYLQRPGQSPQLLIYLASYRASGVPDRFSGSGSGTDFTLRISRVEADDVGIYYCMQPLQAPTFGQGTRLEIK
# Molecular target: Influenza A H1N1 A/Michigan/45/2015 hemagglutinin ectodomain
# Test: mRNA display binding score; higher = more enriched on the antigen
# Settings: antigen blocked with: 2 µM CR9114 IgG
# Protocol: (§1)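 A pool of natively paired antibodies, displayed as scFv on mRNA, was selected once on antigen-coated beads and sequenced before and after; two replicates.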
row,Binder,mRNA display binding score
1,B1,inactive: -0.0524
2,B2,inactive: 0.269
3,B3,inactive: -0.353
4,B4,inactive: 0.829
5,B5,inactive: -0.324
6,B6,inactive: 0.0427

# Same assay, conditions: antigen blocked with: nothing
row,Binder,mRNA display binding score
1,B1,inactive: -0.626
2,B2,inactive: 0.85
3,B3,inactive: -0.403
4,B4,inactive: -0.0543
5,B5,inactive: -0.151
6,B6,inactive: 1.81

# Molecular target: Influenza A H1N1 A/Solomon Islands/3/2006 hemagglutinin ectodomain
# Test: as above
# Settings: antigen blocked with: 2 µM CR9114 IgG
# Protocol: as §1
row,Binder,mRNA display binding score
1,B1,inactive: -0.179
2,B2,inactive: 0.379
3,B3,inactive: -0.755
4,B4,inactive: 0.229
5,B5,inactive: 0.0257
6,B6,inactive: 0.663

# Same assay, conditions: antigen blocked with: nothing
row,Binder,mRNA display binding score
1,B1,inactive: -0.167
2,B2,inactive: 0.658
3,B3,inactive: -0.364
4,B4,inactive: -0.375
5,B5,inactive: -0.562
6,B6,inactive: 0.937

# Molecular target: Influenza A H3N2 A/Singapore/INFIMH-16-0019/2016 hemagglutinin ectodomain
# Test: as above
# Settings: antigen blocked with: nothing
# Protocol: as §1
row,Binder,mRNA display binding score
1,B1,inactive: -0.448
2,B2,inactive: 0.634
3,B3,inactive: -0.324
4,B4,inactive: -0.433
5,B5,inactive: -0.199
6,B6,active: 5.5

# Molecular target: Influenza A H5N1 A/Qinghai/1A/2005 hemagglutinin ectodomain
# Test: as above
# Settings: antigen blocked with: 2 µM CR9114 IgG
# Protocol: as §1
row,Binder,mRNA display binding score
1,B1,inactive: 0.884
2,B2,inactive: 0.0267
3,B3,inactive: 0.214
4,B4,active: 26.1
5,B5,inactive: -0.0932
6,B6,inactive: 2.43

# Same assay, conditions: antigen blocked with: nothing
row,Binder,mRNA display binding score
1,B1,inactive: 13.5
2,B2,inactive: 0.0359
3,B3,inactive: 0.255
4,B4,active: 49.1
5,B5,inactive: -0.191
6,B6,inactive: 2.7

# Molecular target: Influenza A H7N9 A/Shanghai/2/2013 hemagglutinin ectodomain
# Test: as above
# Settings: antigen blocked with: 2 µM CR9114 IgG
# Protocol: as §1
row,Binder,mRNA display binding score
1,B1,inactive: -0.785
2,B2,inactive: 1.31
3,B3,inactive: 0.474
4,B4,inactive: 0.13
5,B5,inactive: 0.0147
6,B6,inactive: 3.53

# Same assay, conditions: antigen blocked with: nothing
row,Binder,mRNA display binding score
1,B1,inactive: -0.492
2,B2,inactive: 1.15
3,B3,inactive: -0.737
4,B4,inactive: 0.492
5,B5,inactive: -0.028
6,B6,inactive: 2.79

# Molecular target: Influenza B/Lee/1940 hemagglutinin ectodomain
# Test: as above
# Settings: antigen blocked with: 2 µM CR9114 IgG
# Protocol: as §1
row,Binder,mRNA display binding score
1,B1,inactive: 0.912
2,B2,inactive: -0.317
3,B3,inactive: 0.0255
4,B4,inactive: -0.827
5,B5,inactive: -0.00685
6,B6,inactive: 4.19

# Same assay, conditions: antigen blocked with: nothing
row,Binder,mRNA display binding score
1,B1,active: 67.7
2,B2,inactive: -0.0443
3,B3,inactive: 3.16
4,B4,inactive: -0.316
5,B5,inactive: -0.384
6,B6,inactive: 0.666

# Molecular target: Influenza B/Phuket/3073/2013 hemagglutinin ectodomain
# Test: as above
# Settings: antigen blocked with: 2 µM CR9114 IgG
# Protocol: as §1
row,Binder,mRNA display binding score
1,B1,inactive: 5.47
2,B2,inactive: -0.222
3,B3,inactive: 3.35
4,B4,inactive: -0.308
5,B5,inactive: -0.0695
6,B6,inactive: 6.16

# Same assay, conditions: antigen blocked with: nothing
row,Binder,mRNA display binding score
1,B1,active: 29.5
2,B2,inactive: -0.0517
3,B3,active: 5.98
4,B4,inactive: -0.00616
5,B5,inactive: -0.426
6,B6,inactive: 1.24
